From PubChem BioAssay AID493208 (National Center for Advancing Translational Sciences (NCATS), 2011)
In all, about 44,000 compounds went through this assay and about 340 (0.77%) were called active. Not shown: some 5% with an inconclusive outcome. The call rests on the fitted dose curve; in most records, active means well fitted inhibition curve with a large enough effect; inconclusive means small, poorly fitted or top-dose-only effect; inactive means flat fitted curve, though single readings scatter. The list shows a part of the results.

assay: Acumen qHTS Assay for Inhibitors of the mTORC1 Signaling Pathway in MEF (Tsc2-/-, p53-/-) Cells: Sytravon; details: phospho-rpS6 immunofluorescence/PI, 24 h; series mostly up to 38.3 µM; activity change, negative = inhibition: at the top concentration;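 further: plate controls were DMSO for no effect and rapamycin for full effect; nearly all actives have a fitted effect of over 50% in size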
Method in brief: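 Compounds act on Tsc2-/-, p53-/- fibroblasts carrying an empty vector for 24 h before fixation and dual staining for phospho-S6 and DNA (propidium iodide). Values are percentages of cells above a rapamycin-defined pS6/PI threshold.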

Activity change, negative = inhibition, inactive:
COC(=O)c1c(NC(=O)C(C)Oc2ccc(Cl)c(C)c2)sc(C)c1C (stereo not given) 6.18%
Cc1ccc(-c2cc(C(=O)Nc3cc([N+](=O)[O-])ccc3C)no2)cc1F 2%
COc1ccc(OC)c(NS(=O)(=O)c2cc3c(cc2Cl)N(C(C)=O)CCO3)c1 0.585%
CCOc1ccc(NC(=O)CC2C(=O)N(c3ccc(F)cc3)C(=O)N2Cc2ccc(OC)c(OC)c2)cc1 (stereo not given) 1.4%
O=C(CSc1nc2cc(C(=O)NC3CCCC3)ccc2c(=O)n1CC1CCCO1)c1cccc(Cl)c1 (stereo not given) 0%
Cc1ccc(C)c2sc(NC(=O)c3ccc(S(=O)(=O)N4CCC(C)CC4)cc3)nc12 -10.6%
CCN1C(=O)c2ccccc2S(=O)c2ccc(C(=O)NCc3ccc(OC)cc3)cc21 (stereo not given) 2.51%
COc1ccc(OC)c(CCNC(=O)CS(=O)(=O)Cc2nc(-c3cccc(Cl)c3)oc2C)c1 7.54%
COc1ccc(CCNc2oc(/C=C/c3cc(OC)c(OC)c(OC)c3)nc2C#N)cc1OC 2.17%
CCOC(=O)c1ccc(N2C(=O)c3n[nH]c(-c4cccs4)c3C2c2ccc(OCC)cc2)cc1 (stereo not given) 0.593%
COc1ccccc1NC(=O)CSc1nnc(N)s1 0.154%
CN(C)c1ccc(CN(Cc2ccco2)C(=O)c2ccc(C(C)(C)C)cc2)cc1 -3.26%
Cc1ccc(-c2nc3nc(C)cc(N4CCN(c5cccc(C)c5C)CC4)n3n2)cc1 2.75%
CCOc1ccccc1NC(=O)NCc1ccc2c(c1)CCN2C(=O)c1ccccc1 0%
COc1ccc(/C=C\c2onc(C)c2S(=O)(=O)N2CCC(C(=O)Nc3ccc(F)cc3F)CC2)cc1 2.29%
O=C(NCc1ccccc1Cl)c1ccc2c(c1)NC(=O)C(CS(=O)(=O)Cc1ccc(F)cc1Cl)N2 (stereo not given) -5.78%
Cc1oc(-c2cccc(Cl)c2)nc1CSc1nncn2c1cc1occc12 -9.38%
O=C(NCCc1ccc(Cl)cc1)c1cnc2sc(N3CCOCC3)nn2c1=O 3.97%
COc1cc(OC)c(Nc2nc3ccccc3c3nncn23)cc1Cl -2.96%
CCc1ccc(CNC(=O)c2cc(=O)[nH]c3ccc(S(=O)(=O)N4CCCCC4)cc23)cc1 3.14%
COc1ccc(CC(=O)Nc2ccc3nc(Nc4ccc(OC)cc4)cc(C)c3c2)cc1 -19.6%
CCOC(=O)c1c(C)oc2nc(C)nc(Nc3ccc(C)c(Cl)c3)c12 2.7%
CCOC(=O)c1c(NC(=O)c2cc(C(C)C)on2)sc(C(C)=O)c1C 3.21%
Cc1c(Cl)ccc2sc(N3CCN(C(=O)C(C)C)CC3)nc12 -6.46%
CC(C)NC(=O)N1CCN(S(=O)(=O)c2ccc3c(ccn3C)c2)CC1 1.95%
Cc1ccc(C)c(NC(=O)CN(C)S(=O)(=O)c2ccc3c(c2)CCC(=O)N3)c1 -0.0271%
CCOC(=O)c1cc(-c2ccc(OC)cc2)n(CCC(=O)NCc2ccc(OC)cc2)c1C -0.185%
CCCS(=O)(=O)c1nc(S(=O)(=O)c2ccc(C)cc2)c(N(C)Cc2ccccc2)s1 -11.8%
Cc1ccccc1C(=O)Nc1nnc2n1CCS2 -1.26%
Cc1cc(C(=O)N2CCN(c3cccc(C)c3C)CC2)c2c(C)nn(-c3ccccc3)c2n1 -7.86%
CCOC(=O)c1c(C)[nH]c(C)c1S(=O)(=O)N1CCCC(C(=O)NCc2cccc(OC)c2)C1 (stereo not given) 3.74%
CCOC(=O)c1sc(NC(=O)C2c3ccccc3Oc3ccccc32)c(C#N)c1C -19.4%
CCCC(=O)NC(C)c1nc2ccccc2n1Cc1ccccc1 (stereo not given) 0.443%
COc1ccc(S(=O)(=O)N2CCCN(CC(=O)Nc3ccc(OC)cc3OC)CC2)cc1 1.51%
COc1ccccc1CNC(=O)CCC1N=C2c3ccccc3N=C(SCC(=O)Nc3ccc(N(C)C)cc3)N2C1=O (stereo not given) 2.81%
Cc1c(C(=O)N(C)C)sc2c1c(=O)n(-c1ccc(Cl)cc1)c(=O)n2Cc1ccccc1F -12.4%
Cc1cccc(OCC(=O)Nc2cc(-c3ccccc3F)nn2-c2ccccc2)c1 11.8%
COc1cc(NC(=O)N2CCC(CN3CCOCC3)CC2)cc(OC)c1OC -7.58%
CC(C)c1ccc(Nc2ncnc3onc(-c4ccc(F)cc4)c23)cc1 -0.758%
Cc1cc(Cl)ccc1NC(=O)Cn1nnc2sc(-c3ccccc3)cc2c1=O -7.62%
COc1ccc(OC)c2sc(N3CCN(C(=O)CCS(=O)(=O)c4ccc(F)cc4)CC3)nc12 -7.8%
Cc1nc2nc(SCC(=O)NC3CCCCC3)nn2c(C)c1Cc1ccccc1Cl -7.95%
COC(=O)c1ccc2c(c1)N(Cc1ccc(Cl)cc1)C(=O)c1ccccc1S2 -2.53%
COCCNc1nc2c(c(=O)n(Cc3cccc(Br)c3)c(=O)n2C)n1C 1.95%
COc1cccc(N2CCN(C(=O)c3cc4c(=O)oc5ccc(C)cc5c4s3)CC2)c1 1.24%
CCCCn1nc(NC(=O)c2cccc(Cl)c2)c2cc3cccc(C)c3nc21 8.43%
CCCn1c2ccccc2c2cnn(CC(=O)N3CCCC(C)C3)c(=O)c21 (stereo not given) -7.8%
CCc1ccccc1-n1c(C)nc2cc(C(=O)NCCc3ccc(Cl)cc3)ccc21 3.13%
Cc1ccc(CNC(=O)C2CCN(S(=O)(=O)c3cn(C)cn3)CC2)cc1 0%
COCCCNC(=O)CCc1c(C)nc2nc(-c3cc(OC)cc(OC)c3)nn2c1C 0.685%
CC(C)N(Cc1ccccc1)S(=O)(=O)c1ccc(-c2cc(C(F)(F)F)on2)s1 5.6%
CC(C)OCCCNC(=O)CN1C(=O)COc2ccc(S(=O)(=O)N3CCCCCC3)cc21 -3.24%
CCC(Oc1ccccc1)C(=O)Nc1cc(-c2cccc(C)c2)nn1-c1ccccc1 (stereo not given) -9.67%
COc1ccc(-n2c(C)c(C(C)=O)c3cc(OC(=O)COc4ccccc4)ccc32)cc1 -21.4%
Cc1cc(-c2ccc(C)c(S(=O)(=O)NCc3cccc(Br)c3)c2)on1 -8.19%
Cc1cc(C)cc(OCC(=O)N(Cc2cccs2)c2ccc(Cl)cc2)c1 0.885%
CCOCCCNC(=O)c1cnc2sc(N3CCCCC3)nn2c1=O 9.49%
Fc1ccc(-c2nn(-c3ccccc3Cl)c3c2cnc2ccccc23)cc1 -12.5%
Cc1ccc2onc(CC(=O)N3CCN(c4cc(Cl)ccc4C)CC3)c2c1 -10.9%
COc1ccc(-n2nc(C(=O)N3CCN(c4cccc(C)c4C)CC3)c3c4ccccc4n(C)c3c2=O)cc1Cl 1.36%
Cc1ccc(CNC(=O)Cc2c(C)c3c(cc(C)c4c(C)coc43)oc2=O)cc1 1.49%
COc1cccc(CNC(=O)Cn2ncn3nc(-c4cccs4)cc3c2=O)c1OC -0.865%
O=C(c1ccc2c(c1)N(Cc1ccc(F)cc1)C(=O)c1ccccc1S2(=O)=O)N1CCCC1 0.218%
CCC(=O)N1CCCc2cc(S(=O)(=O)N3CCC(C(=O)NC4CCCCC4)CC3)ccc21 -4.93%
COc1ccccc1Cn1c(CNS(=O)(=O)c2ccc(C(C)C)cc2)nc2cccnc21 -15.5%
COc1ccc(CNC(=O)c2nc(SCc3ccccc3F)ncc2Cl)cc1 -10.8%
CC(NC(=O)c1ccc2c(c1)CCN2S(=O)(=O)c1ccccc1)c1ccccc1 (stereo not given) 2.04%
Fc1ccccc1Cc1cn2cc(-c3ccc(Cl)cc3)nc2s1 -0.309%
COc1ccccc1NC(=O)c1oc2ccccc2c1NC(=O)c1cccc(OC)c1OC -13.5%
Cc1ccccc1Nc1c(-c2cc(Br)ccc2F)nc2ccccn12 0.441%
CCOC(=O)C1CCC(CN(Cc2ccccc2)S(=O)(=O)c2ccc(Br)cc2)CC1 (stereo not given) -25.2%
Cc1cccc(/C=C(\C#N)c2nc3ccccc3c(=O)[nH]2)c1 -2.74%
COc1cc(NC(=O)CCS(=O)(=O)c2ccc3c(c2)CC(=O)N3C)cc(OC)c1OC 3.62%
COc1ccc(/C=C/c2nc(C#N)c(NCc3ccc(F)cc3)o2)cc1OC -26.9%
CCOc1ccc(-c2cc(C(=O)Oc3ccc(C#N)cc3)no2)cc1 -1.57%
COc1ccc(N2CCN(CCCNC(=O)c3cc(Nc4ccc(OC)cc4OC)nc4ccccc34)CC2)cc1 -8.59%
O=C(CCS(=O)(=O)c1ccccc1)N(Cc1cccnc1)c1nc2ccc(Cl)cc2s1 0.451%
CCCN1Cc2cccc(C(=O)Nc3ccc(C(C)=O)cc3)c2C1=O 0.499%
COc1cccc(C(=O)c2c(N)c(-c3nc(-c4ccccc4)cs3)c3ccccn23)c1 3.88%
Cc1cccc(-n2c(=O)c3c(c4cc(C)ccc4n3C)n(CC(=O)N3CCCC3)c2=O)c1 -4.42%
O=C(CN1C(=O)COc2ccccc21)NCCc1ccc(Cl)cc1 10.7%
CCOc1ccc(N(CC)S(=O)(=O)N2CCCC(C(=O)Nc3ccc(C(C)=O)cc3)C2)cc1 (stereo not given) -8.53%
Cc1ccc(CNC(=O)c2ccc(NC(=O)N3CCSc4ncccc43)cc2)cc1 -6.46%
CCc1ccc(-n2c(=O)c3c4c(sc3n(CC(=O)N3CCCCC3CC)c2=O)CCC4)cc1 (stereo not given) 1.16%
Cc1c(CCC(=O)NCCc2ccc(Cl)cc2)c(=O)oc2c(C)c(O)ccc12 0.453%
CCc1ccc(NC(=O)CN2C(=O)C(c3ccc(Cl)cc3)=NC23CCCCC3)cc1 0.933%
CCOc1ccccc1NC(=O)c1nc(SC(C)C)ncc1Cl 5.28%
Cc1c(CNC2CCCCC2)c(C(=O)O)c(C)n1Cc1cccc(Cl)c1 -0.419%
Cc1ccc(NC(=O)Cn2c(=O)n(Cc3nc(C)no3)c(=O)c3ccccc32)c(Cl)c1 -1.43%
Cc1cccc(C)c1OCCCn1c(CCNC(=O)C2CCCCC2)nc2ccccc21 -1.29%
Cc1c(C(=O)Nc2cccc(Cl)c2)sc2nc3n(c(=O)c12)N=C(c1cccc(Br)c1)CS3 4.89%
COc1ccc(CNC(=O)c2ccc(N3CCCC3)c(NC(=O)NCc3ccc(C)cc3)c2)cc1 0%
Cc1nn2c(-c3cccc(NC(=O)c4ccccc4)c3)nnc2c2ccccc12 -2.6%
COc1ccc(-c2cc(C)no2)cc1S(=O)(=O)N1CCOc2ccccc21 -6.7%
Cc1cccc(N2CCN(C(=O)CCc3nnc4n(CC(C)C)c(=O)c5ccccc5n34)CC2)c1C 0.914%
